Laboratory results taken from PMC12040169 (PLOS Biology, 2025).
This is one part of the list.

tested on: T1, C. trachomatis L2/434/Bu expressing GFP (CTL2-GFP); parameters: species or system HeLa; C. trachomatis total inclusion area by high-content imaging, normalised to DMSO; settings: total inclusion area; 28.5 h, 10 µM; inhibitor
T1 construct: L2/434/Bu GFP intracellular growth in HeLa cells
Outline: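 Imaging read-out: GFP inclusions and Hoechst nuclei captured by high-content imaging after fixation. Inclusion area/number = chlamydial growth; nuclei count = host cell viability. MIC calculated per earlier method.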

SMILES | % of control remaining
O=C(O)c1cccc(-n2ncc(-c3ccccc3C(F)(F)F)n2)c1 [CBK112721] | 89.9121
CCCc1nn(CC(=O)N(C)C)c(=O)c2cc3ccsc3n12 [CBK284193] | 80.7382
CC1CCc2c(sc(NC(=O)c3ccccc3)c2CN2CCCC2)C1 (centres unmarked) [CBK265908] | 117.447
Oc1cc(C(F)(F)F)nc(NCc2cccc3ccccc23)n1 [CBK003716] | 71.878
CCOC(=O)c1cccc(-n2cc(-c3ccc(Br)cc3F)nn2)c1 [CBK113153] | 87.1805
COc1cc(/C=N\NC(=O)CSc2nc3ccccc3o2)ccc1O [CBK263630] | 107.916
Cc1c(C(=O)N2CCC[C@H]2[C@H](O)c2nccs2)oc2ccccc12 [CBK284281] | 48.7087
Cc1nn(CC(=O)N2CCN(Cc3ccccn3)CC2)c(C)c1Cl [CBK305978] | 69.6893
CCN(CCO)c1ccc(Nc2cc(-c3cc(C(F)(F)F)cc(C(F)(F)F)c3)ncn2)cc1 [CBK090994] | 131.945
CN(C)C1CCN(C(=O)c2ccc(-c3cnc(OCC4CCN(C(=O)OC(C)(C)C)CC4)nc3)cc2)C1 (centres unmarked) [CBK169767] | 71.3174
CC(C)(C)Oc1nc(=O)[nH]c(=O)[nH]1 [CBK007194] | 17.4774
CN(C)CCn1nc(-c2cccc(-n3cccc3)c2)oc1=O [CBK284002] | 88.0447
COc1cccc(C(=O)NCCC(=O)N2CCCC(c3ncc[nH]3)C2)c1 (centres unmarked) [CBK306864] | 78.2694
CC1Cc2cc(-c3cc4ccccn4c3)ccc2N1S(C)(=O)=O (centres unmarked) [CBK285227] | 98.3475
CS(=O)(=O)c1ccc(CN2CCOC3(CCN(C(=O)c4ccc5ccccc5c4)CC3)C2)cc1 [CBK161122A] | 58.9409
CC(=O)NCC1OCCc2ccccc21 (centres unmarked) [CBK026449] | 91.8412
CCOCCn1c(CN2CCCCC2)nc2c1c(=O)n(C)c(=O)n2C [CBK306028] | 92.6327
CCOC(=O)c1[nH]c2ccccc2c1NS(=O)(=O)c1ccc(C)c([N+](=O)[O-])c1 [CBK047427] | 87.3341
CC(C)(c1noc(C2CCOCC2)n1)S(=O)(=O)c1ccc(Br)cc1 [CBK305543] | 97.7814
COc1ccc(OC(=O)C2CCN(C(=O)CC(C)C)CC2)c([N+](=O)[O-])c1 [CBK154770] | 96.2001
CNC(=O)c1cccc(NC(=O)c2cc(-c3cccnc3)cnc2NCc2ccc3c(c2)OCO3)c1 [CBK076291] | 66.9605
O=C(c1ccc2[nH]c(=O)[nH]c2c1)N1CCC2(CCNC2)C1 (centres unmarked) [CBK156747C] | 79.2915
COC(=O)c1cc(OC)c(OC)cc1NC(=S)N1CCC(C(N)=O)CC1 [CBK268507] | 145.201
CCCN(CCC)C(=O)c1nc(C)c(C(=O)N(CCC)CCC)nc1C [CBK023232] | 86.3587
COc1ccc(-n2ncc3c2CCCN(C(=O)C2CC2)C3)cc1 [CBK284498] | 103.504

SMILES | % of control remaining
CCOC(=O)C1CCN(Cn2nc(O)ccc2=O)CC1 [CBK263331] | 106.685
O=C(c1ccoc1)N1CCC2(CCCN(Cc3cc(=O)[nH]c(=O)[nH]3)C2)C1 (centres unmarked) [CBK132823] | 119.604
CN(CC(=O)Nc1ccc(Cl)c(C(F)(F)F)c1)C(=O)c1cc(O)nc2ccccc12 [CBK295304] | 76.4936
O=C(Cc1ccc(Cl)cc1Cl)Nc1ccc(-c2nnc3n2CCCCC3)cc1 [CBK296949] | 101.772
Cc1cc(C(=O)COc2cccc(-n3cnnn3)c2)c(C)n1C(C)c1ccccc1 (centres unmarked) [CBK295643] | 83.3268
c1csc(CNc2nccnc2-c2cccs2)c1 [CBK036602] | 89.3665
CCS(=O)(=O)NC1CC(C)(C)Cc2c1cnn2-c1ccc(OC)cc1 (centres unmarked) [CBK306656] | 85.2742
O=[N+]([O-])c1ccc(CN2CCN(Cc3ccc4c(c3)OCO4)CC2)o1 [CBK074557] | 78.1274
O=C(Cc1noc2ccccc12)Nc1ccc(N2CCCS2(=O)=O)cc1 [CBK304521] | 74.8639
O=C(c1cccc2[nH]ccc12)N1CCCC2(CCN(Cc3ccccc3)C2)C1 (centres unmarked) [CBK136887] | 99.4861
CCN(Cc1ccccc1)C(=O)NCCc1c[nH]c2ccc(OC)cc12 [CBK155226] | 92.1891
O=S(=O)(NCc1ccccc1)c1cccc(S(=O)(=O)NCc2ccccc2)c1 [CBK263250] | 122.454
COc1ccc(OCC(O)CN2CCN(c3ccccn3)CC2)cc1 (centres unmarked) [CBK278239C] | 102.074
CC(=O)Nc1ccc(-c2cncc(Nc3ccc(F)c(Cl)c3)n2)cc1 [CBK065765] | 124.212
CCc1nc2c(OCCCN(C)S(C)(=O)=O)cccn2c1N(C)C(=O)c1ccco1 [CBK147435] | 101.441
O=c1[nH]c(=O)c2cc(S(=O)(=O)NC3CCN(Cc4ccccc4)C3)ccc2[nH]1 (centres unmarked) [CBK286380] | 95.7435
CC(CN1CCN(Cc2ccccc2)CC1)N(C(=O)c1ccoc1)c1ccccn1 (centres unmarked) [CBK074861C] | 95.8555
CCn1c(SCc2cc(C)no2)nnc1C1CC1 [CBK297758] | 105.844
CN1C[C@@H](NS(C)(=O)=O)C[C@H]1c1nc(-c2ccc3c(c2)OCO3)no1 [CBK288875] | 106.75
O=S(=O)(Nc1cccnc1N1CCOCC1)c1ccc(F)cc1 [CBK051009] | 45.1083
CCc1noc(C)c1C(=O)N1CC(C(=O)N2CCN(c3ccccc3)CC2)C1 [CBK285667] | 107.583
CCn1ncc(CN2CCCCCC2c2cc(C)on2)c1C (centres unmarked) [CBK282141] | 108.537
C=CCN1C(=O)C2(CC(=O)N(CCOc3ccccc3)C2=O)c2ccccc21 (centres unmarked) [CBK075159] | 98.6342
Cc1cc(-c2cn(C)nc2C2CCCN2C(=O)CC(C)(C)C)on1 (centres unmarked) [CBK283453] | 96.4224
CCN(CC(=O)O)S(=O)(=O)c1cc(C)ccc1OC [CBK268694] | 94.1023
